# In ChEMBL document CHEMBL5606460, “ASAP - DENV-2 NS2B-NS3 protease fluorescence single point” (2024):
# The campaign covered roughly 2,000 compounds. About 110 (5.5%) showed an effect of 50% or more. The list shows a part of the results.
# Molecular target: Genome polyprotein (dengue virus type 2) (UniProt P29990)
# [1] = Thailand/16681/1984, Concentration 25.0 uM, Number of replicates 1.0
compound,measurement,setting,value
CC(C)(CO)NC(=O)c1cc(Cl)cc(CCc2ccccn2)c1,inhibition,"Thailand/16681/1984, Concentration 49.5 uM, Number of replicates 2.0, Standard deviation 2.7116489971157214 %",-3.98%
same,inhibition,"Thailand/16681/1984, Concentration 99.01 uM, Number of replicates 2.0, Standard deviation 2.41618896804853 %",-3.4%
same,inhibition,"Thailand/16681/1984, Concentration 198.0 uM, Number of replicates 2.0, Standard deviation 2.838465745418212 %",-2.83%
O=Cc1ccc(N2CCC(C(=O)NC[C@@H]3CCCN4CCCC[C@H]34)CC2)cc1,inhibition,[1],12.3%
O=Cc1ccc(N2CCC(C(=O)Nc3ccc4c(c3)C(=O)NC4=O)CC2)cc1,inhibition,[1],18.1%
COc1cc(Cc2cc(N)nc(C(F)(F)F)c2)nc(N2CCNCC2)n1,inhibition,"Thailand/16681/1984, Concentration 49.5 uM, Number of replicates 2.0, Standard deviation 2.297956605557041 %",-0.576%
same,inhibition,"Thailand/16681/1984, Concentration 99.01 uM, Number of replicates 2.0, Standard deviation 2.0097364356865053 %",1.03%
same,inhibition,"Thailand/16681/1984, Concentration 198.0 uM, Number of replicates 2.0, Standard deviation 2.0092163014290323 %",3.02%
O=Cc1ccc(N2CCC(C(=O)NCC[C@H](O)c3ccccc3)CC2)cc1,inhibition,[1],11.9%
O=C(c1cc2ccccc2[nH]1)N1CC[C@H](n2cnc3ccccc32)C1,inhibition,"Thailand/16681/1984, Concentration 49.5 uM, Number of replicates 2.0, Standard deviation 0.5333738443614924 %",-0.39%
same,inhibition,"Thailand/16681/1984, Concentration 99.01 uM, Number of replicates 2.0, Standard deviation 0.023947502149101903 %",2.52%
same,inhibition,"Thailand/16681/1984, Concentration 198.0 uM, Number of replicates 2.0, Standard deviation 0.0283014401876713 %",5.83%
CNC(=O)c1cc(Cl)ccc1NS(=O)(=O)CC1(N(C)C)CCC1,inhibition,"Thailand/16681/1984, Concentration 49.5 uM, Number of replicates 2.0, Standard deviation 0.05634696471118445 %",-7.46%
CC(C)(CO)NC(=O)c1cc(Cl)cc(NC(=O)c2cc(S(N)(=O)=O)c[nH]2)c1,inhibition,"Thailand/16681/1984, Concentration 49.5 uM, Number of replicates 2.0, Standard deviation 2.8822580911886684 %",-8.12%
same,inhibition,"Thailand/16681/1984, Concentration 99.01 uM, Number of replicates 2.0, Standard deviation 5.934645813901623 %",-7.35%
same,inhibition,"Thailand/16681/1984, Concentration 198.0 uM, Number of replicates 2.0, Standard deviation 0.9665420443701438 %",-2.84%
c1ccc2c([C@H]3CCN(Cc4cocn4)C3)c[nH]c2c1,inhibition,"Thailand/16681/1984, Concentration 49.5 uM, Number of replicates 2.0, Standard deviation 2.738583973254397 %",-1.51%
same,inhibition,"Thailand/16681/1984, Concentration 99.01 uM, Number of replicates 2.0, Standard deviation 2.748119423775471 %",-1.02%
same,inhibition,"Thailand/16681/1984, Concentration 198.0 uM, Number of replicates 2.0, Standard deviation 3.6277657089904616 %",0.218%
Cc1cc(CO)c2cccc(NC(=O)[C@@H]3C[C@@H](O)CN3)c2n1,inhibition,"Thailand/16681/1984, Concentration 49.95 uM, Number of replicates 2.0, Standard deviation 2.380826244861343 %",16.8%
same,inhibition,"Thailand/16681/1984, Concentration 99.9 uM, Number of replicates 2.0, Standard deviation 17.981184833005678 %",18.7%
OCc1cc(C2CCN(Cc3c[nH]c4ccccc34)CC2)no1,inhibition,"Thailand/16681/1984, Concentration 49.5 uM, Number of replicates 2.0, Standard deviation 2.1499056849188833 %",-5.2%
same,inhibition,"Thailand/16681/1984, Concentration 99.01 uM, Number of replicates 2.0, Standard deviation 1.6007624259654678 %",-4.89%
same,inhibition,"Thailand/16681/1984, Concentration 198.0 uM, Number of replicates 2.0, Standard deviation 2.427993457379461 %",-2.83%
CC(C)N(Cc1cnn(C)c1)C(=O)C1CCN(c2ccc(C=O)cc2)CC1,inhibition,[1],13.4%
CCCC[C@H](NC(C)=O)C(=O)N[C@@H](C(=O)NCc1ccc(C(N)=O)cc1)c1ccc(OCc2ccccc2)cc1,inhibition,"Thailand/16681/1984, Concentration 49.5 uM, Number of replicates 2.0, Standard deviation 1.1393107429607887 %",-2.14%
same,inhibition,"Thailand/16681/1984, Concentration 99.01 uM, Number of replicates 2.0, Standard deviation 1.3468928227151291 %",-2.15%
same,inhibition,"Thailand/16681/1984, Concentration 198.0 uM, Number of replicates 2.0, Standard deviation 1.6817028564994563 %",-0.786%
O=C1C[C@@H](NS(=O)(=O)c2ccc(Oc3ccccc3Cl)cc2)CCN1,inhibition,"Thailand/16681/1984, Concentration 49.5 uM, Number of replicates 2.0, Standard deviation 1.1905021365747266 %",-5.52%
same,inhibition,"Thailand/16681/1984, Concentration 99.01 uM, Number of replicates 2.0, Standard deviation 1.0784606403673063 %",-3.29%
same,inhibition,"Thailand/16681/1984, Concentration 198.0 uM, Number of replicates 2.0, Standard deviation 1.453680839379123 %",-1%
Cc1cc(CO)c2cccc(Cc3ccccc3NC(=O)c3cnn(Cc4c(C)noc4C)c3)c2n1,inhibition,"Thailand/16681/1984, Concentration 49.95 uM, Number of replicates 2.0, Standard deviation 1.6720482568376416 %",3.34%
same,inhibition,"Thailand/16681/1984, Concentration 99.9 uM, Number of replicates 2.0, Standard deviation 1.804289051662393 %",5.99%
O=C(Nc1ccc(Cl)c2cccnc12)c1cnccn1,inhibition,"Thailand/16681/1984, Concentration 49.95 uM, Number of replicates 2.0, Standard deviation 4.683142014666169 %",-9.23%
same,inhibition,"Thailand/16681/1984, Concentration 99.9 uM, Number of replicates 2.0, Standard deviation 6.492893297895574 %",-7.9%
C[C@H]1CN(C(=O)C2CCN(c3ccc(C=O)cc3)CC2)CCN1C(=O)OC(C)(C)C,inhibition,[1],11%
O=Cc1ccc(N2CCC(C(=O)NCc3c(F)cccc3C(F)(F)F)CC2)cc1,inhibition,[1],15%
N[C@@H](Cc1ccc2ccccc2n1)C(=O)O,inhibition,"Thailand/16681/1984, Concentration 49.95 uM, Number of replicates 2.0, Standard deviation 1.7233273158964821 %",-3.46%
same,inhibition,"Thailand/16681/1984, Concentration 99.9 uM, Number of replicates 2.0, Standard deviation 1.4667685751237545 %",-2.8%
O=C1NCCN(S(=O)(=O)c2ccc(Oc3ccccc3Cl)cc2)c2cc(F)c(F)cc21,inhibition,"Thailand/16681/1984, Concentration 49.5 uM, Number of replicates 2.0, Standard deviation 0.05491442625752456 %",0.056%
same,inhibition,"Thailand/16681/1984, Concentration 99.01 uM, Number of replicates 2.0, Standard deviation 1.2458412858443186 %",1.93%
same,inhibition,"Thailand/16681/1984, Concentration 198.0 uM, Number of replicates 2.0, Standard deviation 0.56729017463566 %",6.51%
CNC(=O)c1cc(Cl)ccc1NS(=O)(=O)c1nccn1C,inhibition,"Thailand/16681/1984, Concentration 49.5 uM, Number of replicates 2.0, Standard deviation 3.5638444498396873 %",-8.35%
CC(C)CN1CC[C@H](CNC(=O)C2CCN(c3ccc(C=O)cc3)CC2)C1,inhibition,[1],8.27%
